According to PMC2997436 (Journal of medicinal chemistry, 2010):

How the values were obtained:
rat α4β2 nAChR = rat α4β2 nAChR (Rattus norvegicus, UniProt P09483+P12390); assay type: binding; settings: upto 100 µM concentrations
α7 nAChR = α7 nAChR (Rattus norvegicus, UniProt Q05941); assay type: binding

Compound: CN1C2CCC1CC(N1C(=O)Cc3ccccc31)C2 (stereo not shown) [Compound 4]
- affinity for α4β2 nAChR (in words) (rat α4β2 nAChR): no affinity
- affinity for α7 nAChR (in words) (α7 nAChR): no affinity

Compound: CN1C2CCCC1CC(N1C(=O)Cc3ccccc31)C2 (stereo not shown) [Compound 5, 1-(9-methyl-9-azabicyclo[3.3.1]non-3-yl)-1,3-dihydro-2H-indol-2-one]
- affinity for α4β2 nAChR (in words) (rat α4β2 nAChR): no affinity
- affinity for α7 nAChR (in words) (α7 nAChR): no affinity
